# Laboratory results published in ChEMBL document CHEMBL4888484, “Replenishing the malaria drug discovery pipeline: Screening and hit evaluation of the MMV Hit Generation Library 1 (HGL1) against asexual blood stage Plasmodium falciparum ,using a nano luciferase reporter read-out” (2022).
# About 540 (0.36%) of roughly 150,000 compounds showed an effect of 50% or more. The list shows a part of the results.
# System: Plasmodium falciparum
# Assay: Primary screen in NF54 nanoGlo assay, in single point, at 2uM, 72h; a lower Z score goes with more inhibition
# Type: functional, Erythrocyte
# Settings: timepoint 72 hour
SMILES,% Inhibition,Z score
O=C1c2ccccc2[C@H](O)N1Cc1c[nH]c2ccccc12,5%,-0.8
Cn1cc(S(=O)(=O)Oc2cccc(F)c2C#N)cn1,10%,-1.05
CCN1C[C@@H](NC(=O)N2Cc3ccc(Cl)cc3C2)CC1=O,-8%,1.41
CN(C(=O)NCCC(=O)NC1CCCC1)c1ccccn1,-2%,0.28
CC1CC(C)CN(CCN(CCC(=O)N2CCNCC2)S(=O)(=O)c2ccc(F)c(F)c2)C1 (stereo not drawn),6%,-0.98
O=C1Nc2cc(C(=O)N3CCN(C(=O)c4ccco4)CC3)ccc2N2CCCC[C@@H]12,5%,-0.64
CC(C)(C)c1nnc(CN2CC[C@H](c3ccccc3)C2)o1,-13%,1.85
COCc1ccc(C(=O)NCC[C@H]2CCOC2)s1,-5%,0.97
Cc1ccsc1CN(Cc1ccc(C#CCO)s1)CC(C)C,7%,-0.99
Cc1cccc2c(=O)n(C3CCN(S(=O)(=O)c4cc(F)cc(F)c4)CC3)cnc12,2%,-0.17
O=C(c1ccco1)N1CCC(Cc2nncn2Cc2ccccc2)CC1,1%,-0.1
CCn1c2c(c(=O)n3ncc(C(=O)Nc4ccc(C)c(C)c4)c13)CNCC2,-16%,2.01
CCN1CC2(CCN(C(=O)[C@@H]3CCCCN3C(=O)OC)CC2)CC1=O,-24%,2.81
CNC(=O)c1ccc(CNc2ncnc3nc(N)ccc23)cc1,22%,-2.58
Cc1cccc2c1NC(=O)[C@]21N2CCC[C@H]2[C@@H](C(=O)c2cc3ccccc3o2)[C@]12C(=O)Nc1ccccc12,-9%,1.12
COC[C@H](NS(=O)(=O)N1CCCC1)c1cccc(OC)c1,-11%,1.18
OC1=Nc2c(ncn2-c2cccnc2)[C@@H](c2cc(F)ccc2F)C1,-1%,0.22
CCCc1noc(-c2cccn3c(CC(=O)Nc4cccc(F)c4)nnc23)n1,-5%,0.8
Cc1c(Cl)cccc1NC(=O)COc1ccc(-c2cnccn2)cc1CN(C)C,0%,-0.04
O=C(Nc1c(C(=O)N(Cc2ccco2)C[C@H]2CCCO2)oc2ccccc12)C1CCCC1,-4%,0.41
O=C(c1ccc2c(c1)OCO2)N1CC(c2nc(-c3cccs3)no2)C1,-11%,2.05

SMILES,% Inhibition,Z score
CN(C)c1cc(CNC2CCCCC2O)ccn1 (stereo not drawn),-2%,0.23
O=C(CN1CCN(c2ccccc2)C1=O)N1CC[C@H](Oc2ncccn2)C1,-24%,3.77
CCCC1(CCC)NC(=O)N(CC(=O)N2CCc3cc(OC)c(OC)cc3C2)C1=O,-1%,0.1
Cc1ccc(-n2nc3ccc(NC(=O)c4ccc5c(c4)OCO5)cc3n2)cc1,-4%,0.45
N#Cc1ccc(S(=O)(=O)Nc2ccc(-n3nn[nH]c3=O)cc2)cn1,-9%,0.89
Cn1cc(NC(=O)NCCc2csc(-c3ccccc3)n2)cn1,3%,-0.49
CC1CN(C(=O)C(C)c2cccnc2)CC(C)N1 (stereo not drawn),-11%,1.5
C[C@H](Oc1ccccc1Br)C(=O)N(C)C,-4%,0.49
O=C(Cn1cncn1)NC1CCCCCC1,-6%,0.87
CCc1cnc(CNC(=O)N[C@@H](CC)CO)s1,20%,-2.32
O=C(NC(Cc1ccc2c(c1)OCO2)C(=O)N1CCCC1C(=O)O)c1ccccc1 (stereo not drawn),-10%,1.52
Cc1nn(Cc2cccc(F)c2)c(C)c1NC(=O)c1cccc(COc2ccc(Br)cc2)c1,37%,-1.8
O=C(CN1C(=O)C2C3CC(c4ccccc4)C(C3)C2C1=O)Nc1nccs1 (stereo not drawn),7%,-0.89
CN1C(=O)N(c2ccc(-n3ccnn3)cc2)C(=O)[C@H]1c1cc(F)c(F)c(F)c1,-11%,1.14
COC(=O)c1cc(S(=O)(=O)N2CCC[C@H]2C(=O)Nc2ccc(F)cc2C)cn1C,-11%,2.16
C#CCCC1(CCC(=O)N2CC(=O)NCC2(C)C)N=N1,-2%,0.39
COc1ccccc1OC1(C(=O)O)CCN(c2cc(C3CC3)ncn2)CC1,-6%,0.78
CCc1ccc(NC(N)=NCc2c(C)noc2C)cc1,-2%,0.24
COc1ccc(Nc2nc(N3CCN(c4nc(-c5ccccc5)cs4)CC3)nc3ccccc23)c(OC)c1,-7%,1.02
CC[C@H](OC)c1n[nH]c(=O)n1-c1ccc2ccccc2c1,5%,-0.83
COc1ccc(-c2cnc3ncnn3c2N2CCN(C(=O)Nc3ccccc3OC)CC2)cc1,-14%,1.9

SMILES,% Inhibition,Z score
CC1(C)CCC(NC(=O)COC[C@H]2CCCO2)CC1,-11%,1.45
CCC(=O)Nc1ccc(Oc2c(C)c(C(=O)O)nn2-c2ccccc2C)c(S(=O)(=O)N[C@@H](C)CC)c1,-10%,0.97
NC(=O)N1CCC[C@H](C(=O)N2CCc3c(Cl)cccc3C2)C1,-9%,1.89
O=C(Cc1ccnc(O)c1Br)N1CC2(CCC2)c2ccccc21,-15%,2.5
COCCNC(=O)CN(C)C(=O)c1cccc(C)c1Cl,-2%,0.26
CCN1CCN([C@H](c2ccccc2Cl)c2oc3ccccc3c2NC(=O)c2ccccc2)CC1,-10%,1.55
CC(=O)Nc1ccc(S(=O)(=O)NC2(c3nc(C)no3)CCCCC2)cc1,-3%,0.55
CC(C)c1nnc(CNc2ncc(C#N)cc2Cl)n1C,-9%,1.17
O=C(NC(C1CCCCC1)C(F)(F)F)N[C@H]1CCO[C@@H]1c1cccnc1 (stereo partly drawn),-12%,1.9
COCCCNc1cc(C)c(F)cc1C(N)=O,-14%,2.22
CC(=O)N1C[C@@H]2OCC(=O)N(CC3CCCCC3)[C@@H]2C1,3%,-0.55
COCCOCc1nc([C@@H]2CCCN2S(=O)(=O)c2ccc(F)c(C)c2)no1,-2%,0.31
C[C@@H](c1ccc2c(c1)OCCO2)N(C)Cc1cc(C2CC2)n[nH]1,-8%,1.24
CO[C@H]1COC[C@@H]1NS(=O)(=O)N1CCCCCC1,0%,0.03
COc1cc(Br)c(F)cc1S(=O)(=O)N[C@@H](C)C#N,0%,0.02
Cc1ccc2c(c1)[C@@H](NC(=O)N1C[C@@H](c3nnc(C)o3)O[C@@H](C)C1)[C@H](C)C2,-3%,0.4
CNc1nc(C)cc(N2CCC[C@@]3(CCC(=O)N(Cc4cccnc4)C3)C2)n1,-12%,1.17
CNc1ccnc(N2CC(=O)N[C@H](C)C2)n1,-8%,1.53
CCn1ncnc1CN(C/C=C/c1ccccc1)C1CC1,1%,-0.27
Cc1nc(NC[C@@]2(C)CC2(F)F)cc(-c2cccnc2)n1,1%,-0.1
CC(C)(C)C1CS(=O)(=O)CCN1C(=O)[C@H]1CCCO1 (stereo partly drawn),-4%,0.49

SMILES,% Inhibition,Z score
Cc1cnc(CN(C)CC2(CO)CCC2)cn1,-12%,1.61
C(#Cc1cccs1)c1cnc2ccccc2c1,-17%,2.02
Cc1nnc2n1[C@@H](C)CN(C(=O)CCc1ccnn1C)C2,-2%,0.4
NC(=O)[C@]1(c2ccccc2)CCN(Cc2ccccc2F)C1,-6%,0.61
CC(C)[C@H](NC(=O)CCc1cccc(F)c1F)C(=O)O,-9%,1.21
CC(C)CCN[C@H]1[C@H](O)[C@@H](n2cnc3ccccc32)[C@@H]2OC[C@H]1O2,-5%,0.81
Cc1ncsc1CCS(=O)(=O)CC(C)C,7%,-1
CCn1ncc(Br)c1C(=O)Nc1cnn(CC)c1C(=O)N1CCOCC1,-8%,1.26
CCn1cc(CCN2CCCS2(=O)=O)cn1,-7%,1.14
CNS(=O)(=O)c1ccc2c(c1)N(Cc1ccc3cn[nH]c3c1)CC2,-10%,1.04
Cc1nnc(NC2CCN(c3ncccn3)CC2)c(C#N)c1C,-8%,0.92
CN(C)CCN(C)C(=O)Nc1cc(F)c(C(F)(F)F)c(F)c1,-3%,0.46
O=C(NCc1cccc(C(F)(F)F)c1)c1nnn2c1c(=O)[nH]c1cc(F)ccc12,6%,-1.11
O=C(Nc1cc(-c2ccccn2)no1)c1cc(F)ccc1F,-10%,0.97
CCc1n[nH]c2c1CN(CCC(=O)NCc1cccs1)CC2,-6%,1.17
COCCC1(CNC(=O)Nc2nc3c(s2)CCCC3)CC1,-4%,0.74
O=C(NCc1ccc(Br)cc1)C1CCN(c2cnc3nccnc3c2)CC1,-4%,0.71
COc1ccc(CCC(=O)N2CCC[C@H]2c2ccncc2)cc1Cl,-15%,2.22
N#Cc1ncn(CC(=O)Nc2nc(-c3ccccc3)cs2)c1C#N,-10%,0.97
CN(Cc1ccccc1OC(F)(F)F)CN1C(=O)CC(C)(C)C1=O,-10%,1.32
CCC[C@H]1CN(C(C)=O)C[C@@H]1NC(=O)CN1C(=O)NC(=O)C1(C)C,-23%,4.45
